Results published in PMC7337969.
These are yes or no findings as the source states them, for the method shown. For some of these results: In cells and extracts the contact can be indirect. Some results given as binding are weak or reduced against the parent protein; the word gives no strength. For some of these results: Tags and fused reporters may be left off the sequences shown. Values belong to the binder of their own block, whether it stands above or below them.

The chains behind the UniProt entries cited, without tags or fusion partners.
UniProt Q9CQ71: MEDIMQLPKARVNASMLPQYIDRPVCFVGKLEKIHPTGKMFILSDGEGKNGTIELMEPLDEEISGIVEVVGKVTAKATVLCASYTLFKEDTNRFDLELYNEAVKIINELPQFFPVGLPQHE
UniProt Q62193: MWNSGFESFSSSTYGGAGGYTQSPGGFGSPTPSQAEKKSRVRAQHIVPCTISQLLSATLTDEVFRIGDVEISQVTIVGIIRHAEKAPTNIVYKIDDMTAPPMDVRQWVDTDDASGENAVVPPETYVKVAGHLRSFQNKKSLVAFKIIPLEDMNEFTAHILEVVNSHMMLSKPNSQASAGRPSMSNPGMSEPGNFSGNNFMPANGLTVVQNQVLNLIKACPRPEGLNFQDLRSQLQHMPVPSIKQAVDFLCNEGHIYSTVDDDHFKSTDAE
UniProt Q08297: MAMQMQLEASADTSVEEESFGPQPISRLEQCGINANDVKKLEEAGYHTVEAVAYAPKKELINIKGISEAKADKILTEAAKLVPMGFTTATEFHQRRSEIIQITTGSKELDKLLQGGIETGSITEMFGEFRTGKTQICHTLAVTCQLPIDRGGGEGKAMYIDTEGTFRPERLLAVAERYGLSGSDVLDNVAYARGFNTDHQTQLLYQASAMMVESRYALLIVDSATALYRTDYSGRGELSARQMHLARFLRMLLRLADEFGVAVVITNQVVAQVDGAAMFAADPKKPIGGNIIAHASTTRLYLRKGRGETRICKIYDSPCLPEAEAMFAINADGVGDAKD

Tests used:
[1] = molecular target: T1, GFP-tagged full length MEIOK21 (mouse) (UniProt Q6DIA7); test: co-IP; FLAG-tagged HSF2BP and GFP-tagged MEIOK21 (full length or truncations) co-transfected into HEK-293T cells, lysed after 48 hours, precipitated with GFP antibody; IgG as control
T1 sequence: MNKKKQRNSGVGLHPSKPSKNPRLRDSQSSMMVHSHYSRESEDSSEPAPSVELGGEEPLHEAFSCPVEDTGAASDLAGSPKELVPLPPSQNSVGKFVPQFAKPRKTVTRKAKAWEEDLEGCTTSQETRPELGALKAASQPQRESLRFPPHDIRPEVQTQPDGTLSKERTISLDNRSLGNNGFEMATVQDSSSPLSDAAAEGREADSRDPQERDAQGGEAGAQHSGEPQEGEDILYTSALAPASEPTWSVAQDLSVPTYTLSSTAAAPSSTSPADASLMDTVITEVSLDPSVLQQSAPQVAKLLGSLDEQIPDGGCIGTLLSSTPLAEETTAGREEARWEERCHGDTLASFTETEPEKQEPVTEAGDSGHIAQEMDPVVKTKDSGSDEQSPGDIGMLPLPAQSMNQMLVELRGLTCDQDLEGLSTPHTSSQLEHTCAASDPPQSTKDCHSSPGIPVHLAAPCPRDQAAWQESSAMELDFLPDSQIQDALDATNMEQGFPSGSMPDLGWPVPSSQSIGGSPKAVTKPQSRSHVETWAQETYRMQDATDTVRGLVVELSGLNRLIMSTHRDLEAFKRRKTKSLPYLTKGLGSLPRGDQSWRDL

[2] = molecular target: T2, SPATA22, yeast two-hybrid bait (mouse) (UniProt Q5SV06); test: two-hybrid; MEIOK21 in pGADT7 as prey, partners in pGBKT7 as bait, co-transformed into Y2H gold strain; tested on SD-Leu-Trp-His plates
T2 sequence: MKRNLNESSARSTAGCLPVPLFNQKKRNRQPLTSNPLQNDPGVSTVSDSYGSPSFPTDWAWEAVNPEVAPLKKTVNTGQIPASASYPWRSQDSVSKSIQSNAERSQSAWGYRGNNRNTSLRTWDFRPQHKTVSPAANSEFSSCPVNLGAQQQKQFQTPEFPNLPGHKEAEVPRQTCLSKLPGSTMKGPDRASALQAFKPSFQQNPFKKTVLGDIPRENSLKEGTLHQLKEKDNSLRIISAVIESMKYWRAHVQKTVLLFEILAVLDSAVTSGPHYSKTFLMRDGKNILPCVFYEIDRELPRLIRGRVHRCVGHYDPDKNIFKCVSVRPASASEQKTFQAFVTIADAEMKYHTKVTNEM

[3] = molecular target: T3, DMC1, yeast two-hybrid bait (mouse) (UniProt Q61880); test: as above
T3 sequence: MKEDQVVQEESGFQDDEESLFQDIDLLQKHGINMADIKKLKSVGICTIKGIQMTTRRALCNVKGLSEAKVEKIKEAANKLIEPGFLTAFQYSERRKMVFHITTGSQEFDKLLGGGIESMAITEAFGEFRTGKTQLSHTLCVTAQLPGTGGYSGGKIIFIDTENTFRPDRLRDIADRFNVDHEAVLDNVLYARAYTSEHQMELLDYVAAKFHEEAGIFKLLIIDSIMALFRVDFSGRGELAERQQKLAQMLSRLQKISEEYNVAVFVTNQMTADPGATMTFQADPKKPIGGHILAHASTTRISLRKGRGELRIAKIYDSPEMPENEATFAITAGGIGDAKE

[4] = molecular target: RPA3, yeast two-hybrid bait (mouse) (UniProt Q9CQ71); test: as above
[5] = molecular target: T4, HSF2BP, yeast two-hybrid bait (mouse) (UniProt Q9D4G2); test: as above
T4 sequence: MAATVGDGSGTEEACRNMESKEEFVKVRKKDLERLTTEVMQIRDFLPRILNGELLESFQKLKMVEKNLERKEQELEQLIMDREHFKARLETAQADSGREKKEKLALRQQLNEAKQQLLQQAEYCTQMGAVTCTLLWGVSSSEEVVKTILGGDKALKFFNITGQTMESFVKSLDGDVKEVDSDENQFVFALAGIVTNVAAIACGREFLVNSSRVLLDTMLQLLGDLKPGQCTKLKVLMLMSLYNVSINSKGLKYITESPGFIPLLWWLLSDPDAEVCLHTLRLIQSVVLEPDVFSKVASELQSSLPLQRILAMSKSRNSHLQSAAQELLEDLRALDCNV

[6] = molecular target: RPA2, yeast two-hybrid bait (mouse) (UniProt Q62193); test: as above
[7] = molecular target: RAD51, yeast two-hybrid bait (mouse) (UniProt Q08297); test: as above
[8] = molecular target: T5, RPA1, yeast two-hybrid bait (mouse), Q8VEE4; test: as above; details: remark: other sources report otherwise
T5 chain: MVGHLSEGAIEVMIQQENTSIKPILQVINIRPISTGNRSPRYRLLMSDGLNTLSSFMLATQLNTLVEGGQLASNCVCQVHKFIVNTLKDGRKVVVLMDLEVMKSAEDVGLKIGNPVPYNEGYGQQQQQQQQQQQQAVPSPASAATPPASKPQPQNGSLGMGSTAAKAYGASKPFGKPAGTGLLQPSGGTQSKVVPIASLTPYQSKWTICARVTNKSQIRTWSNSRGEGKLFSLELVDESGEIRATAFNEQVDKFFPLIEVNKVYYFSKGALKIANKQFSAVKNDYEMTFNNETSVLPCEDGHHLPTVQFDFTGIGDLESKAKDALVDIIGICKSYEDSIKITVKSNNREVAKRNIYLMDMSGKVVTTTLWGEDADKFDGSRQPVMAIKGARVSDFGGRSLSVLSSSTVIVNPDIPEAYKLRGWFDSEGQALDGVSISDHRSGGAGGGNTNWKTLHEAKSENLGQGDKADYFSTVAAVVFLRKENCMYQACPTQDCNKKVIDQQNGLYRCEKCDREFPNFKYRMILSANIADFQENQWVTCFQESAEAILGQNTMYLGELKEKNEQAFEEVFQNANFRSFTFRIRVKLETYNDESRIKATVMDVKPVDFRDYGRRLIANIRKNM

[9] = molecular target: T6, MEIOB, yeast two-hybrid bait (mouse), Q9D513; test: as above; details: remark: other sources report otherwise
T6 chain: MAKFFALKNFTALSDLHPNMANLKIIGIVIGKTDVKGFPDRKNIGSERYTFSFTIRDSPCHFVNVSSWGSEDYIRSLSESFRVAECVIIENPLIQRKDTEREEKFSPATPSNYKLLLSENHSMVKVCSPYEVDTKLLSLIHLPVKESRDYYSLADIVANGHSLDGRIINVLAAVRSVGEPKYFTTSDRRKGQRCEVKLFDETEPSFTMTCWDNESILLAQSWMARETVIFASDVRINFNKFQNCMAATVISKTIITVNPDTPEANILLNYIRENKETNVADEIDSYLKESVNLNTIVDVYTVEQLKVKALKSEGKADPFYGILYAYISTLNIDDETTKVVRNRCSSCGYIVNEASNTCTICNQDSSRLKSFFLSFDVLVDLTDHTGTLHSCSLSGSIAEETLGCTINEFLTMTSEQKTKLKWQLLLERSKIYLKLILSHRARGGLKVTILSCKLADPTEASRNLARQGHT

[10] = molecular target: T7, MEIOK21, endogenous in mouse testis (mouse (endogenous in testis)) (UniProt Q6DIA7); test: co-IP; endogenous proteins in WT mouse testis extract (~200 mg), precipitated with anti-MEIOK21 antibody; IgG and Meiok21-/- testis lysate as negative controls; lysis buffer 50 mM Tris-HCl pH 8.0, 120 mM NaCl, 1% NP-40
T7 sequence: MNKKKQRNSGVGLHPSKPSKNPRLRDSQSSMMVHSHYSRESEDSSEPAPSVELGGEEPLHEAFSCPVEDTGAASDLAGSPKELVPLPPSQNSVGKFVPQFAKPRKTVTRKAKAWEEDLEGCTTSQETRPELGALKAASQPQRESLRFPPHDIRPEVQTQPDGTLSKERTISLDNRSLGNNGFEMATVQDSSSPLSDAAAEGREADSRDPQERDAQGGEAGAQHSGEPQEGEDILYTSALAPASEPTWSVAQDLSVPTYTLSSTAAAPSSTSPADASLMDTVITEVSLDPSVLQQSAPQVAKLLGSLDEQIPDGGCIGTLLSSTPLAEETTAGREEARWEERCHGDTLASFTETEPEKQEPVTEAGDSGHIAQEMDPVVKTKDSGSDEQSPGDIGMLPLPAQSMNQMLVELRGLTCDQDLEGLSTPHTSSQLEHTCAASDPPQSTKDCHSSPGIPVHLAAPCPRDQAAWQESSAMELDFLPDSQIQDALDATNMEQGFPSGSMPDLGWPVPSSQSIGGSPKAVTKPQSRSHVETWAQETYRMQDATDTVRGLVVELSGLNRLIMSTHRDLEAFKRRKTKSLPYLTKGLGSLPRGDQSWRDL

B1: FLAG-tagged HSF2BP coiled-coil domain (a.a. 1-92) (domain or fragment, UniProt Q9D4G2 1-92)
chain: MAATVGDGSGTEEACRNMESKEEFVKVRKKDLERLTTEVMQIRDFLPRILNGELLESFQKLKMVEKNLERKEQELEQLIMDREHFKARLETA
binding [1]: binds

B4: HSF2BP, endogenous in mouse testis (protein, UniProt Q9D4G2 1-338)
chain: MAATVGDGSGTEEACRNMESKEEFVKVRKKDLERLTTEVMQIRDFLPRILNGELLESFQKLKMVEKNLERKEQELEQLIMDREHFKARLETAQADSGREKKEKLALRQQLNEAKQQLLQQAEYCTQMGAVTCTLLWGVSSSEEVVKTILGGDKALKFFNITGQTMESFVKSLDGDVKEVDSDENQFVFALAGIVTNVAAIACGREFLVNSSRVLLDTMLQLLGDLKPGQCTKLKVLMLMSLYNVSINSKGLKYITESPGFIPLLWWLLSDPDAEVCLHTLRLIQSVVLEPDVFSKVASELQSSLPLQRILAMSKSRNSHLQSAAQELLEDLRALDCNV
binding [10]: binds

Next, values leading:

binding [2]: no binding
binding [3]: no binding
binding [4]: no binding
binding [5]: binds
binding [6]: no binding
binding [7]: no binding
B2: MEIOK21 (meiosis-specific 4930432K21RIK), yeast two-hybrid prey (protein, UniProt Q6DIA7-1 1-600)
chain: MNKKKQRNSGVGLHPSKPSKNPRLRDSQSSMMVHSHYSRESEDSSEPAPSVELGGEEPLHEAFSCPVEDTGAASDLAGSPKELVPLPPSQNSVGKFVPQFAKPRKTVTRKAKAWEEDLEGCTTSQETRPELGALKAASQPQRESLRFPPHDIRPEVQTQPDGTLSKERTISLDNRSLGNNGFEMATVQDSSSPLSDAAAEGREADSRDPQERDAQGGEAGAQHSGEPQEGEDILYTSALAPASEPTWSVAQDLSVPTYTLSSTAAAPSSTSPADASLMDTVITEVSLDPSVLQQSAPQVAKLLGSLDEQIPDGGCIGTLLSSTPLAEETTAGREEARWEERCHGDTLASFTETEPEKQEPVTEAGDSGHIAQEMDPVVKTKDSGSDEQSPGDIGMLPLPAQSMNQMLVELRGLTCDQDLEGLSTPHTSSQLEHTCAASDPPQSTKDCHSSPGIPVHLAAPCPRDQAAWQESSAMELDFLPDSQIQDALDATNMEQGFPSGSMPDLGWPVPSSQSIGGSPKAVTKPQSRSHVETWAQETYRMQDATDTVRGLVVELSGLNRLIMSTHRDLEAFKRRKTKSLPYLTKGLGSLPRGDQSWRDL

binding [8]: no binding
binding [9]: no binding
B3: MEIOK21 (meiosis-specific 4930432K21RIK), yeast two-hybrid prey, Q6DIA7-1 1-600 (protein)
chain: MNKKKQRNSGVGLHPSKPSKNPRLRDSQSSMMVHSHYSRESEDSSEPAPSVELGGEEPLHEAFSCPVEDTGAASDLAGSPKELVPLPPSQNSVGKFVPQFAKPRKTVTRKAKAWEEDLEGCTTSQETRPELGALKAASQPQRESLRFPPHDIRPEVQTQPDGTLSKERTISLDNRSLGNNGFEMATVQDSSSPLSDAAAEGREADSRDPQERDAQGGEAGAQHSGEPQEGEDILYTSALAPASEPTWSVAQDLSVPTYTLSSTAAAPSSTSPADASLMDTVITEVSLDPSVLQQSAPQVAKLLGSLDEQIPDGGCIGTLLSSTPLAEETTAGREEARWEERCHGDTLASFTETEPEKQEPVTEAGDSGHIAQEMDPVVKTKDSGSDEQSPGDIGMLPLPAQSMNQMLVELRGLTCDQDLEGLSTPHTSSQLEHTCAASDPPQSTKDCHSSPGIPVHLAAPCPRDQAAWQESSAMELDFLPDSQIQDALDATNMEQGFPSGSMPDLGWPVPSSQSIGGSPKAVTKPQSRSHVETWAQETYRMQDATDTVRGLVVELSGLNRLIMSTHRDLEAFKRRKTKSLPYLTKGLGSLPRGDQSWRDL
